{
  "source": "paper PMC12136788",
  "binders": {"B1": {"name": "chr16:94913438:94913439:+_ENSMUSG00000022897_ENSMUST00000122284|mus_hu|motif|central (ssRNA)", "RNA": "GGGAGUUCUACAGUCCGACGAUCAGGGAUGUCAUGGAGUGGUGACUGUGGCCAACCUCCAUAGAAUCUUGGGUAGAGGAGCGGUUCGUUGGAGAAUUGUAGACCCUUGGCCUGGUCCGGUUACCCAAGGCUUGUUGUCCAUGGCAACAGAGGAUUGAGCAUCA"}, "B2": {"name": "71581855_71582081_2943_CDS_ENSMUSG00000031398_ENSMUST00000004326|mouse|control|control (ssRNA)", "RNA": "GGGAGUUCUACAGUCCGACGAUCACUCACACGGUCAAAUGUAGGGGUCACAAAGCUGUAGAGUUGCUGGGACUGUGUGCGGAAGUCAGCAGAACAAUCCCCUACACAGAGCUCAGCAGGCCCAGGUGGUGGGCUGGGCACCAGCAACAGAGGAUUGAGCAUCA"}, "B3": {"name": "chr2:181380236:181380237:+_ENSMUSG00000002455_ENSMUST00000002529|mus_mus|FALSE|FALSE (ssRNA)", "RNA": "GGGAGUUCUACAGUCCGACGAUCACCAUGAUUCUUCUCAAAGUAGGCAGCUCGUAACCACACACUUUUCUUGCUGGGGAAGACUUGUAGGGCAUAGGCAUAUAUGGCUCGUGCACACUCCAGGGCAUUGUGGGCCACACAACUCAACAGAGGAUUGAGCAUCA"}, "B4": {"name": "110384628_110384748_820_3pUTR_ENSG00000138802_ENST00000265175|human|control|control (ssRNA)", "RNA": "GGGAGUUCUACAGUCCGACGAUCGAUGAGAUUGUCUUGAGUCGAUGGAAGGCCUGGAGAUGACCACGUUAGAGUACUGUAUCCUGAAAGACUUUGCUGCUGGUGGUGCUGUUGUGAUGGUAGAGGUGGAAGUGGCGAUGGAUGCAACAGAGGAUUGAGCAUCA"}, "B5": {"name": "chr3:130650941:130650942:+_ENSG00000017260_ENST00000359644|hu_hu|FALSE|FALSE (ssRNA)", "RNA": "GGGAGUUCUACAGUCCGACGAUCAAUAAGGGGAUUUUUAAACUGAGAAAUAUACUUCUUCCACAGUGGCUCAUCUUCACUAAUAUCAAACUCAUUCCAGCCAUGAAAGGCUCGCCUAUGACUAACUUCACAUUUGUUUAGACCCAACAGAGGAUUGAGCAUCA"}, "B6": {"name": "chr17:53040142:53040143:-_ENSG00000166260_ENST00000299335|hu_mus|FALSE|FALSE (ssRNA)", "RNA": "GGGAGUUCUACAGUCCGACGAUCGCUGCUUCAAUUAUAGCCUGGAACUGGCAACUUGUGCCCUUCCUUUGCUUCAAAAAAAGUGUAAGAAAGAGUGAUGAGGUCGACAUUCACCAUUCUUGGAUCUUCUGCAAAUUCAGGAUCCAACAGAGGAUUGAGCAUCA"}, "B7": {"name": "chr5:74638446:74638447:+_ENSG00000113161_ENST00000287936|hu_hu|FALSE|FALSE (ssRNA)", "RNA": "GGGAGUUCUACAGUCCGACGAUCAGGGAUGGGAGGCCACAAAGAGGCCAUGCAUUCGAAAAAGUCUUGACAACAUUGUAGCUACAGAAUCCUUGGAUCCUCCAGAUCUCACUAGAGGCCACCGAACCCCGGCGCCGACGCUCACAACAGAGGAUUGAGCAUCA"}, "B8": {"name": "chr2:118749752:118749753:+_ENSMUSG00000040007_ENSMUST00000036578|mus_mus|FALSE|FALSE (ssRNA)", "RNA": "GGGAGUUCUACAGUCCGACGAUCAUUCCAUGUGAAGUCUUCCCUUUGGGUUUGGGAUAGGGCUUCCAAAACAACAACAAAAAAUUAACCUGUGAAGCCUUCAGGCCUACCCAGCCCAAUUACCCAUCAGGAACAGUUUAUCUUCAACAGAGGAUUGAGCAUCA"}, "B9": {"name": "chr6:149979360:149979361:-_ENSG00000131023_ENST00000543571|hu_hu|motif|central (ssRNA)", "RNA": "GGGAGUUCUACAGUCCGACGAUCAAAUGAUUGGGAAAAUACAAAUAAGUUCAUUAAAAACACAGGCUGAUUAUUCAUAUCGGUUACAUUCAGAAUUAUGCGAAACAAUUAGUUAUAUUGCAAAGCUGUAAUUCUUUUUCUAACCAACAGAGGAUUGAGCAUCA"}, "B10": {"name": "142722499_142722619_4218_CDS_ENSMUSG00000057637_ENSMUST00000105778|mouse|control|control (ssRNA)", "RNA": "GGGAGUUCUACAGUCCGACGAUCCACUCCAUUUUUGGGCUGCACCGUCUGUCUCAGCGGCACUGGGUUUUUCUUAGGAGUGUACCUCUUCUUGUCACUUGCAGAUGCACACGCCAAGAUGUGCUUAUGCAGCUCAGGCAUGUUCAACAGAGGAUUGAGCAUCA"}, "B11": {"name": "chr17:60770872:60770873:+_ENSG00000011028_ENST00000303375|hu_hu|hu_hu_hu_mus_True|28_58 (ssRNA)", "RNA": "GGGAGUUCUACAGUCCGACGAUCUCUUUAAAAAAAAAAAAAAAAAGACAAACAAUAAUAGCACAUUUCGAGAAUCAUCAACUACAGUAGAGGGUCCGCUUUGAGUUGUCCAUGUUCUCGUCCUGCACUGGGACACGGGGACUGCAACAGAGGAUUGAGCAUCA"}, "B12": {"name": "45479652_45480140_725_CDS_ENSG00000126088_ENST00000246337|human|control|control (ssRNA)", "RNA": "GGGAGUUCUACAGUCCGACGAUCCCCUGCAUGGGACUCAAACAGCUGCAAUGCCUGGGCACCAGCCACCACUUGUCCUACCAGAUAUGGGACCAGAGCAUCAGUGAGGAUGCGAAGCAGCUGGUGACUAGCCUGAGGUCUCUGCAACAGAGGAUUGAGCAUCA"}, "B13": {"name": "85047046_85049060_925_CDS_ENSMUSG00000024253_ENSMUST00000025101|mouse|control|control (ssRNA)", "RNA": "GGGAGUUCUACAGUCCGACGAUCGGUGCCGGUACUCUUUGGUGGGAAGAGCUUGUCAUACACCUUUUUCCACAGCUCCAUAGGUGAGUGGGCCUGAAGUUUUCCAAUGUCACUGUCAGGAACAGGAGGAGACCCUAUCUGACACAACAGAGGAUUGAGCAUCA"}, "B14": {"name": "chr5:6374476:6374477:-_ENSG00000133398_ENST00000255764|hu_mus|motif|central (ssRNA)", "RNA": "GGGAGUUCUACAGUCCGACGAUCUAGGCUUUUAAAUUUCUUCAUUGUGUCGAUCUUGCCCUUGACUUGCUCGUUUUUAGCGGGAGCCCUCUCCAGGCAUUCUUUGGUGUAGAGCUGGGGAUUCCGACCUUGAUCAAUGUAUUCCAACAGAGGAUUGAGCAUCA"}, "B15": {"name": "chr3:176767854:176767855:-_ENSG00000177565_ENST00000430069|hu_hu|hu_hu_hu_mus_False|68_68 (ssRNA)", "RNA": "GGGAGUUCUACAGUCCGACGAUCGACAUCCUUGUUACUGGGCACGUCCUGCCCUCCUUCCCGUAUGCAAUGUCUAAGCACGAGCUGCGUAGGGCCACUCGUGCUGUUCUCACUGAGGUUCCAGAUUCUUGCCGUGGAGUCUCCCAACAGAGGAUUGAGCAUCA"}, "B16": {"name": "chr22:38894135:38894136:-_ENSG00000100201_ENST00000396821|hu_hu|motif|central (ssRNA)", "RNA": "GGGAGUUCUACAGUCCGACGAUCAUAGUCAUCGGCCACCUGCUGUACUUGCUGGGCAAGCUCUCUGGUAGGAGCCAGAACGGGACAGAUUGGGCCAUCUCCCCUUUCCAAGUAUGGCUGGUGGUUAAUAUGAACAAUUGCAGGCAACAGAGGAUUGAGCAUCA"}, "B17": {"name": "chr2:5814250:5814251:-_ENSMUSG00000025816_ENSMUST00000102981|mus_hu|mus_mus_mus_hu_True|58_78 (ssRNA)", "RNA": "GGGAGUUCUACAGUCCGACGAUCUUCCUUUCCGGUUUCUGAAUUUCUGGUAGAACUGCACAGAAAGGUUUGAUAACUUCUAAAAACUUGAUGCCCAUGGCUGCUGCUGGGGAGGCCCAGGGGGAAACCGCGGCCUCGGCGCUGCAACAGAGGAUUGAGCAUCA"}, "B18": {"name": "chr4:81121375:81121376:+_ENSG00000152784_ENST00000415738|hu_hu|motif|central (ssRNA)", "RNA": "GGGAGUUCUACAGUCCGACGAUCUACCCGAAAGAUAUACGGUACUGUUCUCUUGUCAGUAGACUUGAGAGCUAUGAAAGCGGUGCUGUCAUAUAGGGAAGUAUGGCUCAGGACACAGGGACCAAAUAUAGCAUUCUCAGGGAUCAACAGAGGAUUGAGCAUCA"}, "B19": {"name": "chr16:1877921:1877922:+_ENSG00000180185_ENST00000427358|hu_mus|FALSE|FALSE (ssRNA)", "RNA": "GGGAGUUCUACAGUCCGACGAUCUUUCAUUAUUAGUGUCAUUUAUUUCCCUUGCUUCUGUCUCCCUUCCCCUUUGGCACUCUACUCUCAGUAUUCUGAUCUUUUCACCUUGAACCUCAUACUAACCACCCCAUCUAUGCCGGCCAACAGAGGAUUGAGCAUCA"}, "B20": {"name": "chr1:78428520:78428521:-_ENSG00000162613_ENST00000370768|hu_hu|FALSE|FALSE (ssRNA)", "RNA": "GGGAGUUCUACAGUCCGACGAUCCCCUAAAGGAUUUACUGGGCCACCAAUCUUUUCUUCUAUGAGUUGCCGAGCAUAGUCUAUCUGUUGUGGAGUGCCACGAAUUGUAAAUAACUUCAUAUUAGGAUCUGCAUUUGGUGGAGGCAACAGAGGAUUGAGCAUCA"}, "B21": {"name": "chr11:130013608:130013609:+_ENSG00000084234_ENST00000528499|hu_mus|FALSE|FALSE (ssRNA)", "RNA": "GGGAGUUCUACAGUCCGACGAUCUAGAGCAUGUGUGAGACAAUACAAUAGAAGUGGCAUUUCUAAUUUAAAAAAAGAAAACUACAUCCAUCAGAUAUCUGCAAUAGAUCUUUUUCUUUCAUUUCACUUAAGGUUUAUAUAUCACAACAGAGGAUUGAGCAUCA"}, "B22": {"name": "chr19:16212804:16212805:+_ENSG00000167460_ENST00000300933|hu_mus|hu_hu_hu_mus_False|68_108 (ssRNA)", "RNA": "GGGAGUUCUACAGUCCGACGAUCAACAAAUAUGCAAUGAAGGAAAGAUGUAACAUGGAACAGCAUUCCAUCUAUUACAGAAGGCACAUGGGCAACAAUGAUCACCCCAGCAUUCUCGCUUGGAAUGCUUAAAGACAAUCUGUUCAACAGAGGAUUGAGCAUCA"}},
  "note": "The other results are listed elsewhere or left out.",
  "data": [
    {"target": "T1, UNK ZnF1-3 (human, UniProt Q9C0B0 31-174)", "T1 sequence": "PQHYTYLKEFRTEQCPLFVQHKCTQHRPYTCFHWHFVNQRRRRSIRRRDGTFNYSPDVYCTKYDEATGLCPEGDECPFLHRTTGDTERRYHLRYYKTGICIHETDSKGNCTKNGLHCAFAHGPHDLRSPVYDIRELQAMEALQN", "test": "nsRBNS (natural sequence RNA bind-n-seq); RBNS binding buffer (assumed for nsRBNS): 25 mM Tris pH 7.5, 150 mM KCl, 3 mM MgCl2, 0.01% Triton X-100, 500 ug/ml BSA, 20 U/ml SUPERase-In, 4 C; UNK is unkempt and MSI1 is Musashi-1; names of the RNAs are library labels; protein concentration not given here; high values mean tight binding", "units": {"binding signal": "enrichment R"}, "values": [
      {"binder": "B1", "binding signal": 0.58},
      {"binder": "B2", "binding signal": 0.872},
      {"binder": "B3", "binding signal": 1.06},
      {"binder": "B4", "binding signal": 1.59},
      {"binder": "B5", "binding signal": 1.16},
      {"binder": "B6", "binding signal": 1.08},
      {"binder": "B7", "binding signal": 1.25},
      {"binder": "B8", "binding signal": 0.603},
      {"binder": "B9", "binding signal": 0.805},
      {"binder": "B10", "binding signal": 0.271},
      {"binder": "B11", "binding signal": 3.17},
      {"binder": "B12", "binding signal": 1.12},
      {"binder": "B13", "binding signal": 0.861},
      {"binder": "B14", "binding signal": 0.577},
      {"binder": "B15", "binding signal": 0.498},
      {"binder": "B16", "binding signal": 0.524},
      {"binder": "B17", "binding signal": 1.25},
      {"binder": "B18", "binding signal": 1.34},
      {"binder": "B19", "binding signal": 0.642},
      {"binder": "B20", "binding signal": 1.47},
      {"binder": "B21", "binding signal": 1.75},
      {"binder": "B22", "binding signal": 0.677}
    ]}
  ]
}
